Source: PubChem BioAssay AID1030 (National Center for Advancing Translational Sciences (NCATS), 2008)
Several values for one entry are separate records, joined by “and”; a condition that tells them apart may be missing. Identical values can stand only once. Hit rate of the full screen: of about 220,000 compounds, about 16,000 (7.3%) were called active. Inconclusive results, whose numbers are uncertain, are shown with a selection of clear calls. Calls follow the shape of the dose curve; as a rule, active = well fitted inhibition curve with a large enough effect (not every such curve was filed as active); inconclusive = small, poorly fitted or top-dose-only effect, or another doubt; inactive = no such curve, though single readings can be large or run the other way. A potency beside an inconclusive call is a rough fit, not a confirmed value.

Molecular target: Aldehyde dehydrogenase 1A1 (Homo sapiens) (UniProt P00352)
Assay: qHTS Assay for Inhibitors of Aldehyde Dehydrogenase 1 (ALDH1A1);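 as to activity, negative = inhibition: plate controls were no enzyme wells and a reference inhibitor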
Conditions: Purified ALDH1A1, NADH fluorescence, propionaldehyde substrate; series mostly up to 75.3 µM; activity, negative = inhibition: at the top concentration
Potency is read from the fitted curve at half-maximal effect; tags tell the direction and shape of the fitted curve.

Chain of UniProt P00352 (P00352 whole entry, looked up): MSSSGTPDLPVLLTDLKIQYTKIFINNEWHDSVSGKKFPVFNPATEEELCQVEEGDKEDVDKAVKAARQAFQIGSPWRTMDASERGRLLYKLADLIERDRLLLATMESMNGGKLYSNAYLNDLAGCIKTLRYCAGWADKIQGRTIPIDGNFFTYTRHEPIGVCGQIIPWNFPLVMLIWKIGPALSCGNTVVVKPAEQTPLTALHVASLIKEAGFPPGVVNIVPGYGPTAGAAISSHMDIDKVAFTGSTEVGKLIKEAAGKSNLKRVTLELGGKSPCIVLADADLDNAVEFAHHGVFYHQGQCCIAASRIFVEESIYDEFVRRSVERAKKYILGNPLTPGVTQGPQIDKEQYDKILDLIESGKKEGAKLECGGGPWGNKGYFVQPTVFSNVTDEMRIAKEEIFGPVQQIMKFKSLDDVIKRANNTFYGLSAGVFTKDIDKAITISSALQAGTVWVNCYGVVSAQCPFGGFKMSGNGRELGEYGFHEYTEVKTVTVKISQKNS

| SMILES | Potency | activity, negative = inhibition |
| --- | --- | --- |
| CCN(CC)c1ccc(/C=N\N2CCN(Cc3ccc(C)cc3)CC2)cc1 | active: 0.794 µM | – |
| Cc1nnsc1SC(C)C(=O)O (centres undefined) | inconclusive: 22.4 µM [inhibitor, single point] | – |
| Cc1nnc(NC(=O)c2oc3c(ccc4ccccc43)c2C)s1 | inconclusive: 28.2 µM [inhibitor, partial curve] | – |
| c1ccc2c3c([nH]c2c1)-c1[nH]ncc1CC3 | inconclusive: 39.8 µM [inhibitor, single point] | – |
| CC1CN=C2C(C(=O)Nc3ccccc3)=C(O)CC(c3ccccc3)N21 (centres undefined) | inconclusive: 39.8 µM [inhibitor, single point] | – |
| Cc1nc2nc(SCC(=O)NCc3ccco3)nn2c(C)c1Cc1ccccc1 | inconclusive: 39.8 µM [inhibitor, single point] | – |
| CCOC(=O)c1c(C)[nH]c(C(=O)COC(=O)/C=C/c2ccc(OC(F)F)cc2)c1C | inconclusive: 39.8 µM [inhibitor, single point] | – |
| C/C(=N\NC(=O)c1cccc(S(=O)(=O)Nc2cccc(Cl)c2)c1)c1cccs1 | inconclusive: 37.7 µM [inhibitor, single point] | – |
| CN(c1ccc(C(=O)NCc2ccncc2)cc1)S(C)(=O)=O | – | inactive: 4.77% |
| O=C(Nc1ccncc1)c1cncc(Br)c1 | inconclusive: 31.6 µM [inhibitor, single point] | – |
| Cc1nc2ccc(N=NC3=C(O)CCCC3=O)cc2s1 | – | inactive: -2.58% |
| C(=C\c1ccccc1)/CNCC1CCCO1 (centres undefined) | active: 25.1 µM | – |
| Cc1ccc(-c2onc3ccc(C4(C)OCCO4)cc23)cc1 | – | inactive: 8.82% |
| CCn1c(SCC(=O)NC(=O)NC(C)(C)C)nc2ccccc21 | – | inactive: 0.946% |
| CCc1nc2sccc2c(=O)[nH]1 | – | inactive: 6.13% |
| CCOC(=O)C(=O)Nc1sc(C(=O)N(CC)CC)c(C)c1C#N | – | inactive: -1.95% |
| COc1ccc(C(=O)Nc2ccc(NC(=O)c3ccco3)c(Cl)c2)cc1OC | inconclusive: 37.7 µM [inhibitor, single point] | – |
| COC(=O)c1cc(NC(=O)c2cc(C)oc2C)cc(C(=O)OC)c1 | active: 25.1 µM | – |
| CCN1CCN(CC(=O)Nc2cc(C)on2)CC1 | inconclusive: 31.6 µM [inhibitor, single point] | – |
| CCc1cc2c(=O)n(Cc3ccccc3)c(SC3CCOC3=O)nc2s1 (centres undefined) | active: 2.82 µM | – |
| O=C(N/N=C/c1ccc2c(c1)OCO2)c1sc2cccc(Cl)c2c1Cl | inconclusive: 28.2 µM [inhibitor, single point] | – |
| CC1CC1C(=O)Nc1nc(-c2ccccn2)cs1 (centres undefined) | active: 10 µM | – |
| CC(=O)CSc1nc(N)c(C#N)c(-c2cccs2)c1C#N | inconclusive: 20 µM [inhibitor, partial curve] | – |
| CCN1CCN(CCCOc2ccc(Cl)cc2Br)CC1 | active: 12.6 µM | – |
| COc1ccc(-c2nn3cnnc3s2)cc1OC | inconclusive: 39.8 µM [inhibitor, single point] | – |

| SMILES | Potency | activity, negative = inhibition |
| --- | --- | --- |
| CCCCSc1nnc2[nH]c(=O)cc(N)n12 | inconclusive: 39.8 µM [inhibitor, single point] | – |
| O=C(O)C1C2C=CC(C2)C1C(=O)Nc1ccc(C(=O)N2CCCCC2)cc1 (centres undefined) | inconclusive: 28.2 µM [inhibitor, single point] | – |
| CCOc1ccccc1-c1c2cc(O)c(=O)cc-2oc2cc(O)c(O)cc12 | active: 20 µM | – |
| O=C(CC(SCc1ccco1)c1ccc(O)cc1)c1cccs1 (centres undefined) | active: 12.6 µM | – |
| COc1ccc(/C=N/Nc2ccccc2C(=O)O)cc1Cn1cc([N+](=O)[O-])cn1 | inconclusive: 28.2 µM [inhibitor, partial curve] | – |
| CCCC(=O)Nc1ccc(C(=O)NCC2CCCO2)cc1 (centres undefined) | inconclusive: 0.708 µM [inhibitor, full curve, poor fit] | – |
| CC(NC(=O)c1cccc(Br)c1)c1ccccc1 (centres undefined) | inconclusive: 39.8 µM [inhibitor, single point] | – |
| Cc1ccc(SCCC(=O)N2CCC(C)CC2)cc1 | inconclusive: 25.1 µM [inhibitor, single point] | – |
| CCN(CC)S(=O)(=O)c1ccc(NC(=O)c2ccc(NS(C)(=O)=O)cc2)cc1 | inconclusive: 28.2 µM [inhibitor, single point] | – |
| COc1ccc(OC)c(S(=O)(=O)Nc2ccc(O)c(Sc3ncn[nH]3)c2)c1 | – | inactive: 7.47% |
| Cc1cc(NC(=O)c2cnn3c(C(F)F)cc(C4CC4)nc23)no1 | active: 5.01 µM | – |
| C=CCNc1oc(-c2ccc(OC)cc2)nc1C#N | inconclusive: 28.2 µM [inhibitor, partial curve] | – |
| CCCn1nnc(NC(=O)/C=C/c2ccco2)n1 | inconclusive: 39.8 µM [inhibitor, single point] | – |
| Clc1ccccc1-c1ncc2ccccn12 | inconclusive: 39.8 µM [inhibitor, single point] | – |
| N=C(N)S/C=C\C(=O)O | active: 7.94 µM | – |
| CCOc1ccc(S(=O)(=O)Nc2ccc(S(=O)(=O)N3CCOCC3)cc2)cc1 | inconclusive: 25.1 µM [inhibitor, partial curve] | – |
| Cc1nc2nc(-c3ccc(Cl)cc3)cn2nc1C | inconclusive: 3.16 µM [inhibitor, partial curve] | – |
| Cc1cc(OCc2nc(N)nc(N)c2-c2ccc(Cl)c(Cl)c2)ccc1[N+](=O)[O-] | – | inactive: 0.419% [at 13.5 µM] |
| Cc1nc(C)c(C(=O)C2=C(O)C(=O)N(CCN3CCOCC3)C2c2ccco2)s1 (centres undefined) | inconclusive: 39.8 µM [inhibitor, single point] | – |
| O=C(CCl)N(c1ccccc1)c1c[nH]c2ccccc12 | inconclusive: 39.8 µM [inhibitor, single point] | – |
| CC(=O)c1cccc(NC(=O)CCCOc2ccc(C)cc2)c1 | inconclusive: 39.8 µM [inhibitor, single point] | – |
| CCOC(=O)c1c(=O)n(O)c2ccc(OC)cc2[n+]1[O-] | inconclusive: 39.8 µM [inhibitor, single point] | – |
| Cc1cccc(C)c1NC(=S)NNc1ncc(C(F)(F)F)cc1Cl | inconclusive: 11.2 µM [inhibitor, partial curve] | – |
| O=C(c1cc2ncc(Br)cn2n1)N1CCCCC1 | inconclusive: 25.1 µM [inhibitor, single point] | – |
| O=C(CCNC(=O)c1ccccc1)N/N=C/c1ccc([N+](=O)[O-])cc1 | – | inactive: -1.61% |

| SMILES | Potency | activity, negative = inhibition |
| --- | --- | --- |
| Cn1ncc(N2CCN(C(=O)c3ccc(Cl)cc3)CC2)c(Cl)c1=O | – | inactive: 2.26% |
| Cc1ccc(N2C(=O)CSC2c2ccccn2)cc1Cl (centres undefined) | inconclusive: 22.4 µM [inhibitor, single point] | – |
| Cc1cc(=O)n2nc(-c3ccccc3)sc2c1C#N | inconclusive: 14.1 µM [inhibitor, partial curve] | – |
| CCS(=O)(=O)n1nc(-c2ccccc2)nc1NCc1ccco1 | – | inactive: -12.6% |
| Cc1nc2c(c(=O)n1CCC(C)C)c1nc3ccccc3nc1n2Cc1ccc2c(c1)OCO2 | inconclusive: 2.82 µM [inhibitor, full curve] | – |
| c1ccc2[nH]c(-c3ccncc3)nc2c1 | inconclusive: 39.8 µM [inhibitor, single point] | – |
| S=c1[nH]nc(-c2ccccc2)n1Cc1ccccc1 | active: 17.8 µM | – |
| Cc1cc(C)c(C#N)c(SCC(=O)C(C)(C)C)n1 | inconclusive: 20 µM [inhibitor, partial curve] | – |
| CN(C)C(=O)COC(=O)c1cc(Cl)cc(Cl)c1N | inconclusive: 31.6 µM [inhibitor, partial curve] | – |
| CCNc1ccc(C(=O)NN=C2CCCC2)cc1[N+](=O)[O-] | active: 2.24 µM | – |
| Cc1cc2nc(-c3ccc(SCC(=O)N4CCc5ccccc54)nc3)[nH]c2cc1C | inconclusive: 31.6 µM [inhibitor, partial curve] | – |
| CCOC(=O)N1CCN(C(=O)Nc2ccc3nc(-c4ccccn4)c(-c4ccccn4)nc3c2)CC1 | inconclusive: 25.1 µM [inhibitor, partial curve] | – |
| O=C(CSc1ncn[nH]1)Nc1nc(-c2cccc([N+](=O)[O-])c2)cs1 | active: 17.8 µM | – |
| CC(=O)Nc1cccc(C(=O)/C=C/c2ccc(/C=C/C(=O)c3cccc(NC(C)=O)c3)cc2)c1 | – | inactive: -2.01% |
| CCSc1nc(N)nc(-c2cccs2)c1C#N | inconclusive: 39.8 µM [inhibitor, single point] | – |
| C#CCCCCCCCCCCCc1ccco1 | active: 20 µM | – |
| COc1ccc2nc(SCC(=O)Nc3nccs3)[nH]c2c1 | – | inactive: 2.05% |
| CCN1CCN(c2cc3c(cc2F)c(=O)c(C(=O)O)cn3C2CC2)CC1 | inconclusive: 31.6 µM [inhibitor, partial curve] and inconclusive: 28.2 µM [inhibitor, single point] | – |
| CC(=O)Nc1ccc(S(=O)(=O)N2CCCC2C(=O)Nc2ccc3c(c2)OCCO3)cc1 (centres undefined) | inconclusive: 28.2 µM [inhibitor, single point] | – |
| CCOC(=O)CSC1=C(C#N)C(c2ccccc2OCC)C(C#N)C(=O)N1 (centres undefined) | inconclusive: 17.8 µM [inhibitor, partial curve] | – |
| CCOC(=O)c1sc(NC(=O)c2sccc2C)cc1C | inconclusive: 31.6 µM [inhibitor, single point] | – |
| COC(=O)C(CCCCN1C(=O)C2C3C=CC(C3)C2C1=O)N1C(=O)C2C3C=CC(C3)C2C1=O (centres undefined) | inconclusive: 22.4 µM [inhibitor, single point] | – |
| CCN(CC)S(=O)(=O)c1ccc(Cl)c(C(=O)OC)c1 | inconclusive: 12.6 µM [inhibitor, partial curve, poor fit] | – |
| CCN(CC)c1ccc(N=Cc2c(C)[nH]c3ccccc23)cc1 | active: 0.447 µM | – |
